Source: article PMC5577129
These are yes or no findings as the source states them, for the method shown. Some results given as binding are weak or reduced against the parent protein; the word gives no strength.

Key:
Assay in all cases: two-hybrid; Gal4 vector system (Clontech), pGBKT7 and pGADT7, yeast AH109; growth on SD/-Trp-Leu-His-Ade plates, 3 to 7 days, 30 °C; cells serially diluted
[1] = target: T1, AtSPO11-1 (Arabidopsis thaliana) (UniProt Q9M4A2)
T1 sequence: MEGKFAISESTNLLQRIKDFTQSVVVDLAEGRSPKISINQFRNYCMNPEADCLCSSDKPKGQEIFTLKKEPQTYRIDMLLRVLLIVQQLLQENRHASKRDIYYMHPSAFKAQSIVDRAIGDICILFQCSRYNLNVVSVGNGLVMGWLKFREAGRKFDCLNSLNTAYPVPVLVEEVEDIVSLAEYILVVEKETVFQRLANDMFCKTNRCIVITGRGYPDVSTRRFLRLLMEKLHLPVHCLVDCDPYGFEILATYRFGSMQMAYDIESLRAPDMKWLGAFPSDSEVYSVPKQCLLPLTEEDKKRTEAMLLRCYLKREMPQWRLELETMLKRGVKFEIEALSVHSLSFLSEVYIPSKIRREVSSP

[2] = target: T2, full length AtPRD1 (1–1330 aa) (Arabidopsis thaliana) (UniProt O23277)
T2 sequence: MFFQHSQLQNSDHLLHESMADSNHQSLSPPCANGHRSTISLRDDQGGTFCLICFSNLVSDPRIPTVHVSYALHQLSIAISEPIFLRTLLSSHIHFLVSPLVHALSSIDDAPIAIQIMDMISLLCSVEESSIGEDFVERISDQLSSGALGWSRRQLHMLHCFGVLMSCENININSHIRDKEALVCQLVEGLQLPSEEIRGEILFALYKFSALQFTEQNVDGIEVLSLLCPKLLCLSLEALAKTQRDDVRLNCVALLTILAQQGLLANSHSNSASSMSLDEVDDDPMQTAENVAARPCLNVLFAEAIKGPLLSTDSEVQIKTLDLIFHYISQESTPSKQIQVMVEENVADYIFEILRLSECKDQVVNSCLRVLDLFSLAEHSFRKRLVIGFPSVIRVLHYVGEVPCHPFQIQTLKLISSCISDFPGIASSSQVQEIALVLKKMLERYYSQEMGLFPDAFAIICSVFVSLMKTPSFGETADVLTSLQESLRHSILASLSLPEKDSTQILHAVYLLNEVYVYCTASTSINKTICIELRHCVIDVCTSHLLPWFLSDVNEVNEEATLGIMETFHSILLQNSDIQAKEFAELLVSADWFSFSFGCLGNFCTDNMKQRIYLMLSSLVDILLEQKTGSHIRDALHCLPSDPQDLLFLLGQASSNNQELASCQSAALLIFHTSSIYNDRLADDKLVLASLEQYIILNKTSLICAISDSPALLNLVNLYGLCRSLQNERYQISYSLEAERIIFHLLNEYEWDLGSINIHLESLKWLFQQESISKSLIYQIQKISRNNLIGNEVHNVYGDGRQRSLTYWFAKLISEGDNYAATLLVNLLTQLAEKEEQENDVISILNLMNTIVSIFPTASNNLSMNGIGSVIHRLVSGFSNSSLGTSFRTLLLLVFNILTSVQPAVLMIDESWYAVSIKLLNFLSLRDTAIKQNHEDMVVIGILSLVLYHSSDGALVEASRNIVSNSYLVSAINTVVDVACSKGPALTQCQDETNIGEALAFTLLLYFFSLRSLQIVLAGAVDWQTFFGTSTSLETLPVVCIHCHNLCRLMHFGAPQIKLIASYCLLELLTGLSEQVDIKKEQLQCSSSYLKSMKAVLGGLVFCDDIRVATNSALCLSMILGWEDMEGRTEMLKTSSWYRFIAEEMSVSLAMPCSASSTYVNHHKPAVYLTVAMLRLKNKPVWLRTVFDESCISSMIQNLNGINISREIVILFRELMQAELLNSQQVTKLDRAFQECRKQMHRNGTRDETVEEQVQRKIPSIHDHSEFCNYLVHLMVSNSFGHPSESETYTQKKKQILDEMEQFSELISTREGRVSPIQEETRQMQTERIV

[3] = target: T3, AtDFO (Arabidopsis thaliana) (UniProt Q8RX33)
T3 sequence: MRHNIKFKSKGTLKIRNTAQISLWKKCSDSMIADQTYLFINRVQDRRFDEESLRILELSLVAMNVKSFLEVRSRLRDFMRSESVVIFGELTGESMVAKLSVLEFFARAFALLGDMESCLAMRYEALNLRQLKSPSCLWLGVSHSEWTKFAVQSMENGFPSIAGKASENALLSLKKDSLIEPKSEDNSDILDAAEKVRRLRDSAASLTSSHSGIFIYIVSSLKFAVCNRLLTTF

[4] = target: T4, AtPRD3 (Arabidopsis thaliana) (UniProt Q0WWX5)
T4 sequence: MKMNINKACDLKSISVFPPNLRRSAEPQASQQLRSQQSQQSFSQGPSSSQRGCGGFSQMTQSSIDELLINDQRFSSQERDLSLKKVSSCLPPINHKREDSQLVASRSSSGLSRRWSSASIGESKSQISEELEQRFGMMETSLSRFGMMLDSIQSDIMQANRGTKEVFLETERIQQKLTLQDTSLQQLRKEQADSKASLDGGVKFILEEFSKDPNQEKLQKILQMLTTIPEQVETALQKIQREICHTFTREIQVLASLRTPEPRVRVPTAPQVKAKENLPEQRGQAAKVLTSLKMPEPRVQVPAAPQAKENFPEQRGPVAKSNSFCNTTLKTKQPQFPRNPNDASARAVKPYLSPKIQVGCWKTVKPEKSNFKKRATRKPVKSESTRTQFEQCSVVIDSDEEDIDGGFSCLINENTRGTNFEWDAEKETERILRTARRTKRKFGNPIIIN

[5] = target: T5, AtSPO11-2 (170-383 aa) (Arabidopsis thaliana) (UniProt Q9M4A1)
T5 sequence: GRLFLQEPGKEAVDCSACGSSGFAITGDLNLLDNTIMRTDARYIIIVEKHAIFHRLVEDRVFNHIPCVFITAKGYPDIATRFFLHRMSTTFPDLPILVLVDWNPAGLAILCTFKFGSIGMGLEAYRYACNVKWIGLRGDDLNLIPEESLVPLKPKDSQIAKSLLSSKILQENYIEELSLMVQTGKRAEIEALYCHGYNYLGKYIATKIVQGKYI

Measured: binding

B1: truncated AtPRD1 (1-821 aa) (domain or fragment, UniProt O23277 1-821)
chain: MFFQHSQLQNSDHLLHESMADSNHQSLSPPCANGHRSTISLRDDQGGTFCLICFSNLVSDPRIPTVHVSYALHQLSIAISEPIFLRTLLSSHIHFLVSPLVHALSSIDDAPIAIQIMDMISLLCSVEESSIGEDFVERISDQLSSGALGWSRRQLHMLHCFGVLMSCENININSHIRDKEALVCQLVEGLQLPSEEIRGEILFALYKFSALQFTEQNVDGIEVLSLLCPKLLCLSLEALAKTQRDDVRLNCVALLTILAQQGLLANSHSNSASSMSLDEVDDDPMQTAENVAARPCLNVLFAEAIKGPLLSTDSEVQIKTLDLIFHYISQESTPSKQIQVMVEENVADYIFEILRLSECKDQVVNSCLRVLDLFSLAEHSFRKRLVIGFPSVIRVLHYVGEVPCHPFQIQTLKLISSCISDFPGIASSSQVQEIALVLKKMLERYYSQEMGLFPDAFAIICSVFVSLMKTPSFGETADVLTSLQESLRHSILASLSLPEKDSTQILHAVYLLNEVYVYCTASTSINKTICIELRHCVIDVCTSHLLPWFLSDVNEVNEEATLGIMETFHSILLQNSDIQAKEFAELLVSADWFSFSFGCLGNFCTDNMKQRIYLMLSSLVDILLEQKTGSHIRDALHCLPSDPQDLLFLLGQASSNNQELASCQSAALLIFHTSSIYNDRLADDKLVLASLEQYIILNKTSLICAISDSPALLNLVNLYGLCRSLQNERYQISYSLEAERIIFHLLNEYEWDLGSINIHLESLKWLFQQESISKSLIYQIQKISRNNLIGNEVHNVYGDGRQRSLTYWFAKLISEGDNYAA
binds: [1] | [2] | [3] | [4] | [5]
